# In PubChem BioAssay AID686978 (National Center for Advancing Translational Sciences (NCATS), 2013):
# Hit rate of the full screen: of about 420,000 compounds, about 64,000 (15%) were called active. The shares of active, inactive and inconclusive entries below differ from those in the screen. The call rests on the fitted dose curve; in most records, active means well fitted inhibition curve with a large enough effect; inconclusive means small, poorly fitted or top-dose-only effect; inactive means flat fitted curve, though single readings scatter. Potencies of inconclusive entries are left out as doubtful fits.
# Test: qHTS for Inhibitors of human tyrosyl-DNA phosphodiesterase 1 (TDP1): qHTS in cells in absence of CPT; further: nearly all actives have a fitted effect of over 55% in size
# Details: DT40 Tdp1-/- hTDP1 cells, no CPT, ATP luminescence, 48 h; activity change, negative = growth inhibition: at 46.2 µM (top of the series) unless noted
# Procedure, shortened: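 Compound effects on proliferation are scored in DT40 Tdp1-/-;hTDP1 cells in the absence of CPT. ATP levels (CellTiter-Glo luminescence) are recorded after a ≥48 hr, 37 °C incubation.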
# On the % scale 0 is the no-effect control and ±100 the full control effect; potency means the concentration at half of the fitted maximal effect; tags describe the fitted curve by direction and shape.
Compound,Potency,"activity change, negative = growth inhibition"
COc1ccc(CN2CCNC(=O)C2CC(=O)NC2CC(C)(C)CC(C)(C)C2)cc1OC (configuration not stated),"inconclusive [inhibitor, single point]",–
C=C(CN(C)C)C(=O)c1ccc(C)cc1C,active: 0.58 µM,–
Cc1c(N2C(=O)/C(=C/C3CC=CCC3)SC2=S)c(=O)n(-c2ccccc2)n1C (configuration not stated),"inconclusive [inhibitor, single point]",–
COc1ccc(CNC2CCSc3ccccc32)cc1OC (configuration not stated),"inconclusive [inhibitor, single point]",–
C=CC[n+]1ccc(/C=C2\C=Cc3cc(C)ccc3N2CC)c2ccccc21,active: 0.206 µM,–
CCOc1ccccc1NC(=O)CCc1nnc2ccc(N3CCC4(CC3)OCCO4)nn12,"inconclusive [inhibitor, partial curve, poor fit]",–
Fc1ccccc1N1CCN(c2ncc3c(n2)CCN(Cc2cc(Br)cs2)C3)CC1,inactive,–
CCOc1ccccc1NC(=O)C(c1ccccc1)N1Cc2ccccc2C1=O (configuration not stated),"inconclusive [inhibitor, single point]",–
O=C(CCCn1c(SCC(=O)c2ccccc2)nc2ccccc2c1=O)NCC1CCCO1 (configuration not stated),"inconclusive [inhibitor, single point]",–
O=S(=O)(N/N=C/c1c(F)cccc1Cl)c1ccccc1,"inconclusive [inhibitor, partial curve]",–
C=CSc1sc(Cl)c(N2CCOCC2)c1[N+](=O)[O-],"inconclusive [inhibitor, single point]",–
CCN(CC)S(=O)(=O)c1ccc2oc(C(=O)NCc3ccccc3OC)c(C)c2c1,active: 10.3 µM,–
CCOc1ccc(N(CC)S(=O)(=O)N2CCCC(C(=O)NCCc3ccc(OC)cc3)C2)cc1 (configuration not stated),"inconclusive [inhibitor, single point]",–
COCCCNC(=O)c1ccc(Cn2c(SCc3cccc(C)c3)nc3cccnc32)cc1,"inconclusive [inhibitor, single point]",–
Cc1ccc(C)c(N2CCN(C(=O)c3cc(S(=O)(=O)N4CCCCCC4)cn3C)CC2)c1,"inconclusive [inhibitor, single point]",–
COc1cccc(CNC(=O)N2CCN(S(=O)(=O)c3ccc(Cl)cc3)CC2)c1,"inconclusive [inhibitor, partial curve]",–
CC1(C)CC(=O)/C(=C(/O)CCCN2C(=O)c3ccccc3C2=O)C(=NC(C)(C)C)C1,inactive,–
Cc1cccc2sc(N(CCCN(C)C)C(=O)COc3ccccc3)nc12,inactive,–
Cc1nc(NC(=O)/C=C/c2ccccc2)sc1C(=O)Nc1cccc(Cl)c1,"inconclusive [inhibitor, partial curve]",–
CC1(C)c2ccccc2-c2nc3ccccc3cc2C1O (configuration not stated),"inconclusive [inhibitor, partial curve]",–
CC(Nc1cc(N2CCN(S(C)(=O)=O)CC2)ccc1[N+](=O)[O-])c1ccccc1 (configuration not stated),active: 16.4 µM,–
Fc1ccc(CCNC(=S)Nc2ccc(F)c(Cl)c2)cc1,"inconclusive [inhibitor, single point]",–
Cc1ccc([C@H]2C(C(=O)O)=CC[C@@H](c3ccc(C)cc3)N2S(=O)(=O)c2ccc(C)cc2)cc1,inactive,–
CCc1ccccc1NC(=O)c1cc(-c2cccs2)on1,inactive,–

Compound,Potency,"activity change, negative = growth inhibition"
Cn1c(N)c(C(=O)COC(=O)COc2ccc(Cl)cc2)c(=O)n(C)c1=O,inactive,–
O=S1(=O)CC(N2CCN(Cc3ccccc3F)CC2)CN1Cc1cn(Cc2cccc(Cl)c2)nn1 (configuration not stated),active: 20.6 µM,–
O=C(CC12CC3CC(CC(C3)C1)C2)NC(=S)N1CCCCC1,"inconclusive [inhibitor, single point]",–
COc1ccc(S(=O)(=O)N(CC(C)C)CC(C)C)c2cccnc12,"inconclusive [inhibitor, single point]",–
O=C1CCCN1CCCn1cnc2c([nH]c3ccc(F)cc32)c1=O,inactive,–
CCOC(=O)C(=CNc1cc(C)ccc1C)C(=O)OCC,active: 16.4 µM,–
CSc1ccccc1OCc1cc(C(=O)N(C)CCn2nc(C)cc2C)no1,active: 20.6 µM,–
Cc1ccc(O)c(C(=O)c2cnc3c(c2)COc2ccccc2-3)c1,"inconclusive [inhibitor, partial curve]",–
CCCn1c(CCCNC(=O)c2ccccc2OC)nc2ccccc21,active: 18.4 µM,–
COc1ccc(N2C(=O)CCC(C(=O)N3CCN(c4ccccn4)CC3)C2c2ccc(F)cc2)cc1 (configuration not stated),–,inconclusive: -5.93% [inhibitor]
COc1cccc(CNc2ccc(C)c(Cl)c2)c1,"inconclusive [inhibitor, single point]",–
CCOC(=O)C1CCCN(C(=O)c2nn(-c3ccc(C)cc3)c(=O)c3c2c2ccccc2n3C)C1 (configuration not stated),"inconclusive [inhibitor, partial curve, poor fit]",–
CC(OCCN(C)C)C(=O)C12CC3CC(CC(C3)C1)C2 (configuration not stated),–,inconclusive: -31.9% [inhibitor]
C=CCNC(=O)/C(C#N)=C/c1ccc(OS(=O)(=O)c2ccc(C)cc2)c(OC)c1,"inconclusive [inhibitor, single point]",–
CC(C(=O)NC1CCCC1)n1c(C2CCCC2)nc2ccccc21 (configuration not stated),inactive,–
CCN(C[C@H]1N[C@@](Cc2ccccc2)(C(=O)OC)[C@H]2C(=O)N(C)C(=O)[C@@H]12)C(=O)c1ccc(C)cc1,inactive,–
CCN(CC)S(=O)(=O)c1ccc2oc(SCC(=O)Nc3cc(C)on3)nc2c1,active: 0.731 µM,–
Cc1ccc2c(c1)cc(CN(Cc1ccco1)S(=O)(=O)c1ccccc1)c1nnnn12,active: 20.6 µM,–
CN(c1ccc(OCC(=O)OCC(=O)Nc2ccc(OC(F)F)cc2)cc1)S(=O)(=O)c1cccs1,inactive,–
Cc1cc(C)c2c(n1)sc1c(=O)n(-c3cc(Cl)ccc3C)nnc12,"inconclusive [inhibitor, partial curve]",–
Cc1ccccc1NNC(N)=S,active: 23.1 µM,–
CCOCCc1nnc(NC(=O)Cc2c(F)cccc2Cl)s1,inactive,–
CCOC(=O)c1ccc(NC(=O)CSCc2ccco2)cc1,"inconclusive [inhibitor, single point]",–
O=C(NCc1ccccc1)/C(=C/c1ccc(OC(F)F)cc1)c1ccccc1,"inconclusive [inhibitor, single point]",–

Compound,Potency,"activity change, negative = growth inhibition"
C=CCN(Cc1nc(-c2cc(OC)ccc2OC)oc1C)C1CCS(=O)(=O)C1 (configuration not stated),inactive,–
Cc1ccc(C2CCN(C(=O)Nc3ccc(F)cc3)C2)cc1 (configuration not stated),"inconclusive [inhibitor, partial curve, poor fit]",–
CCOC(=O)C1CCN(CC(=O)Nc2c(C(=O)OC)[nH]c3cccc(Cl)c23)CC1,"inconclusive [inhibitor, single point]",–
COC(=O)N1CCCCC1c1cc(C(=O)NCc2ccc(Cl)c(Cl)c2)no1 (configuration not stated),"inconclusive [inhibitor, single point]",–
C=CCn1c(C(C)NC(=O)c2ccccc2)n[nH]c1=S (configuration not stated),inactive,–
CCN(CC)CCCNC(=O)c1nn(-c2ccc(C)cc2)c(=O)c2c1c1ccccc1n2C,"inconclusive [inhibitor, single point]",–
Cc1ccc(C(=O)N2CC(=O)Nc3ccc(F)cc3C2c2ccc(F)cc2)cc1 (configuration not stated),"inconclusive [inhibitor, single point]",–
OC(COC(c1ccccc1)c1ccccc1)CN1CCCCC1 (configuration not stated),inactive,–
CCOc1ccc(CNS(=O)(=O)c2ccc(-c3coc(C)n3)cc2)cc1OC,active: 14.6 µM,–
CCOC(=O)N1CCN(C(=O)c2oc3ccc(S(=O)(=O)N4CC(C)CC(C)C4)cc3c2C)CC1 (configuration not stated),"inconclusive [inhibitor, single point]",–
CCN(Cc1ccccc1)C(=O)c1sc2nc3n(c(=O)c2c1C)CCCC3,"inconclusive [inhibitor, single point]",–
CN1C(=O)OC(C)(C)C1=O,inactive,–
CS(=O)(=O)N(CC(=O)N1CCCC1)c1ccc(Cl)cc1,inactive,–
COC(=O)/C(=C\Nc1ccc(Cl)cc1Cl)NC(=O)c1ccc(Cl)cc1Cl,"inconclusive [inhibitor, single point]",–
COc1ccc(CCN2C(=O)c3[nH]nc(-c4ccccc4O)c3C2c2ccccc2)cc1OC (configuration not stated),active: 20.6 µM,–
O=C(CN1CCN(c2ccccc2O)CC1)Nc1ccc2c(c1)CCC2,"inconclusive [inhibitor, single point]",–
O=[N+]([O-])c1ccc2cn(C3OC(CO)C(O)C3O)nc2c1 (configuration not stated),"inconclusive [inhibitor, partial curve, poor fit]",–
CC1(C)CC(=O)C=C(Nc2cccc(Cl)c2Cl)C1,"inconclusive [inhibitor, single point]",–
CCCCc1c(C)nc2ccc(OC)cc2c1SCCC(=O)O,inactive,–
S=C(Nc1ccc(Cl)cc1)Nc1ccc2c(c1)OCCO2,inactive,–
Cc1cccc(S(=O)(=O)N(C)C[C@H]2OCc3cn(nn3)CCCC(=O)N([C@@H](C)CO)C[C@@H]2C)c1,inactive,–
COc1ccc(CN(CC(=O)NCc2ccccc2)C(=O)CCC(=O)Nc2ccccn2)cc1,"inconclusive [inhibitor, partial curve, poor fit]",–
O=C(c1ccc(OC2CCN(Cc3ccccn3)CC2)cc1)N1CCCCCC1,inactive,–
CCC(=O)N1c2ccc(S(=O)(=O)CCC(=O)Nc3ccc(Br)c(C)c3)cc2CC1C (configuration not stated),active: 20.6 µM,–
